{"source": "PubChem BioAssay AID463173", "about": "(ICCB-Longwood Screening Facility, Harvard Medical School, 2010)", "note": "Screen size: about 52,000 compounds; about 1,700 (3.3%) were called active. Rule as the data show it: active = survival mostly below about 52% (no sharp cut-off); inactive = mostly above about 56%. This is one part of the list."}
{"tested_on": "Wild type", "test": "S. aureus survival, RN4220 and DeltatarO strains – OD600, teichoic acid synthesis inhibitors, primary screen (AID 463173)", "settings": "S. aureus RN4220 wild type/DeltatarO growth, OD600, 18 h, stronger effect = lower value, screened at 18.75 µg/mL (by protocol)"}
{"compound": "CCCOc1cccc(C(=O)Nc2ccc(-c3nc4ccccc4s3)c(Cl)c2)c1", "survival": "inactive: 65%"}
{"compound": "CCN1C(C(=O)c2ccccc2)=C(OC(=O)C(C)C)c2ccccc2S1(=O)=O", "survival": "inactive: 78%"}
{"compound": "COc1ccc(CCNC(=O)CCn2c(=O)c3ccccc3n(Cc3ccc(Cl)cc3)c2=O)cc1OC", "survival": "inactive: 150%"}
{"compound": "CCc1ccccc1NC(=O)Cn1c(=O)nc(-c2ccccc2)c2ccccc21", "survival": "inactive: 138%"}
{"compound": "CCc1cc(CC)c(/C=N/NC(N)=O)c(CC)c1/C=N/NC(N)=O", "survival": "inactive: 119%"}
{"compound": "C=C(C)CSc1nc2sc3c(c2c(=O)n1CCCC)CCCC3", "survival": "active: 0%"}
{"compound": "CCOC(=O)c1c(C)[nH]c(C)c1S(=O)(=O)N1CCC(C(=O)NCc2ccc(C)cc2)CC1", "survival": "inactive: 71%"}
{"compound": "CCN1C(=O)CC(n2c(C)nc3ccccc32)C1=O", "note": "(stereo not drawn)", "survival": "inactive: 108%"}
{"compound": "O=c1c2c([nH]n1-c1ccccc1)CCCC2", "survival": "inactive: 123%"}
{"compound": "COc1ccc(CNC(=O)C2CCN(c3nc4ccc(C)cc4[nH]3)CC2)cc1", "survival": "inactive: 83%"}
{"compound": "CCn1c2c(c(=O)n3ncc(C(=O)Nc4cccc(Cl)c4C)c13)CN(Cc1ccc(OC)cc1)CC2", "survival": "inactive: 74%"}
{"compound": "CCCC(O)c1nc2ccccc2n1CCCCOc1ccc(OC)cc1", "note": "(stereo not drawn)", "survival": "inactive: 74%"}
{"compound": "O=C(O)Cn1ccnc1", "survival": "inactive: 104%"}
{"compound": "Cc1cc(C)cc(NC(=O)CSc2nncn3c2cc2occc23)c1", "survival": "inactive: 66%"}
{"compound": "O=C(Nc1ccc(N2CCN(CCOc3ccc(Cl)cc3)CC2)c(C(=O)O)c1)c1ccc(F)cc1", "survival": "active: -3%"}
{"compound": "CCCn1c(SCC(O)c2cccc(OC)c2)nc2ccccc21", "note": "(stereo not drawn)", "survival": "inactive: 81%"}
{"compound": "CC1=CS(=O)(=O)CC1Sc1ncn[nH]1", "note": "(stereo not drawn)", "survival": "inactive: 46%"}
{"compound": "COc1ccccc1C(=O)NC1(C(F)(F)F)C(=O)Nc2c1c(=O)[nH]c(=O)n2CCc1ccccc1", "note": "(stereo not drawn)", "survival": "inactive: 81%"}
{"compound": "COC(=O)c1cn(CC(=O)Nc2ccc(F)cc2)c2ccccc12", "survival": "inactive: 105%"}
{"compound": "O=C(Nc1cccc(Cl)c1)C1=CC(=O)N2CCN=C2S1", "survival": "inactive: 88%"}
{"compound": "COc1ccc(CNC(=O)c2nnn(CC(=O)Nc3cc(C)cc(C)c3)c2N)cc1", "survival": "inactive: 93%"}
{"compound": "CCc1nc2ccccc2n1CCCCOc1ccccc1C", "survival": "active: 24%"}
{"compound": "COC(=O)c1ccc(-n2c(/C=C\\c3cccc(Br)c3)nc3ccccc3c2=O)cc1", "survival": "inactive: 84%"}
{"compound": "Cc1ccc(S(=O)(=O)C(CNC(=O)C(=O)NCCc2ccccc2)c2ccco2)cc1", "note": "(stereo not drawn)", "survival": "inactive: 76%"}
{"compound": "Cc1ccc(OCc2nc(-c3ccc(C(=O)N4CCN(c5ccc(Cl)cc5)CC4)cc3)oc2C)cc1", "survival": "inactive: 72%"}
{"compound": "Cc1nn(Cc2ccc(Cl)cc2)c(C)c1NC(=O)c1noc2c1CCc1ccccc1-2", "survival": "inactive: 66%"}
{"compound": "CC(C)CCNC(=O)CSc1c2c(nc3ccc(Cl)cc13)CCCC2", "survival": "inactive: 79%"}
{"compound": "CC(C)Oc1ccc(CNC(=O)Cn2c(=O)oc3ccccc32)cc1", "survival": "inactive: 65%"}
{"compound": "Cc1cccc(-c2nc(SCC(=O)Nc3cccc(C(F)(F)F)c3)n3[nH]c(=O)cc3n2)c1", "survival": "active: -3%"}
{"compound": "CCOc1ccc(CNC(=O)C2CCCN(S(=O)(=O)c3ccc4c(c3)CCCC(=O)N4)C2)cc1", "note": "(stereo not drawn)", "survival": "inactive: 83%"}
{"compound": "CCOC(=O)C1=C(CN2CCN(CC)CC2)NC(=O)NC1c1ccc(Cl)cc1", "note": "(stereo not drawn)", "survival": "inactive: 75%"}
{"compound": "Cc1cc(C(=O)NCc2ccccc2C)c2c(C)nn(-c3cccc(F)c3)c2n1", "survival": "inactive: 76%"}
{"compound": "CCCn1c(=O)sc2cc(NC(=O)c3ccccc3OCC)ccc21", "survival": "inactive: 85%"}
{"compound": "CCCCCCn1c(CNC(=O)c2ccccc2)nc2ccccc21", "survival": "inactive: 91%"}
{"compound": "CC(=O)Nc1ccccc1-c1nc2cc(C#N)c(C#N)cc2[nH]c1=O", "survival": "inactive: 108%"}
{"compound": "O=C(CC1N=C2c3ccccc3N=C(SCc3ccc(F)cc3)N2C1=O)NCc1cccs1", "note": "(stereo not drawn)", "survival": "inactive: 132%"}
{"compound": "COc1ccc2c(c1)CCc1c(C(=O)Nc3ccccc3C(F)(F)F)noc1-2", "survival": "inactive: 145%"}
{"compound": "CCN(CC)C(=O)CN1CCN(c2cccc(Cl)c2)CC1", "survival": "inactive: 109%"}
{"compound": "COc1cccc(CNC(=O)Cn2cc3c(n2)-c2c(oc(C(=O)N4CCCC4)c2C)CC3)c1", "survival": "inactive: 86%"}
{"compound": "CCc1ccc(NC(=O)Cn2ncc3c4ccccc4n(C)c3c2=O)cc1", "survival": "inactive: 89%"}
{"compound": "CCn1c(SCC(=O)c2ccc([N+](=O)[O-])cc2)nnc1-c1ccc(Cl)cc1", "survival": "inactive: 69%"}
{"compound": "CCOC(=O)c1scc(-c2ccc(C)cc2)c1S(=O)(=O)Nc1cc(Cl)ccc1OC", "survival": "active: -6%"}
{"compound": "CC(C)Oc1ccc(C2CC(=O)N(C)C2=O)cc1", "note": "(stereo not drawn)", "survival": "inactive: 115%"}
{"compound": "CCCCn1cc(S(=O)(=O)c2ccc(OC)cc2)c(=O)c2cc(F)c(F)cc21", "survival": "inactive: 84%"}
{"compound": "COC(=O)Cn1c(CN2CCN(c3ccc(OC)cc3)CC2)nc2c1c(=O)[nH]c(=O)n2C", "survival": "inactive: 79%"}
{"compound": "CCOc1ccc(NC(=O)c2cc(S(=O)(=O)NC3CCCC3)ccc2F)cc1", "survival": "inactive: 68%"}
{"compound": "CCOC(=O)c1c(S(=O)(=O)NCC(=O)Nc2cccc(CC)c2)c(C)n(C)c1C", "survival": "inactive: 69%"}
{"compound": "CCc1ccc(NC(=O)CSc2nc(-c3ccccc3)c(C#N)c(=O)[nH]2)cc1", "survival": "inactive: 95%"}
{"compound": "Clc1cccc(-c2csc(-c3nc(-c4ccc(Br)s4)cs3)n2)c1", "survival": "inactive: 76%"}
{"compound": "CCN(CC)C(=O)c1sc2c(c1C)c(=O)n(-c1ccccc1)c(=O)n2Cc1cc(=O)n2ccccc2n1", "survival": "inactive: 60%"}
{"compound": "CC(C)(C)NC(=O)C1N(C2CC2)C(=O)C2C(C(=O)NCc3ccccc3)C3C=CC21O3", "note": "(stereo not drawn)", "survival": "inactive: 103%"}
{"compound": "COc1ccc(NC(=O)c2ccc3c(c2)c(C)c(C)n3Cc2ccc(F)cc2)c(OC)c1", "survival": "inactive: 59%"}
{"compound": "COc1ccc(C2=Nn3c(nc4sc(C(=O)Nc5cccc(C)c5)c(C)c4c3=O)SC2)cc1", "survival": "inactive: 111%"}
{"compound": "COc1ccc(-c2nn3c(-c4ccc(C)cc4)nnc3c3ccccc23)cc1", "survival": "inactive: 70%"}
{"compound": "COc1cccc(CN2C(=O)c3ccccc3Sc3ccc(C(=O)NCCc4ccc(Cl)cc4)cc32)c1", "survival": "inactive: 89%"}
{"compound": "COc1ccc(NC(=O)c2cc3c([nH]c2=O)CC(c2ccccc2)CC3=O)cc1", "note": "(stereo not drawn)", "survival": "inactive: 63%"}
{"compound": "CCCOc1ccc(OC(=O)c2c(-c3ccccc3Cl)noc2C)cc1", "survival": "inactive: 72%"}
{"compound": "COc1ccc(NC(=O)Cn2c(=O)n(-c3ccc(CC(=O)NCC4CCCO4)cc3)c(=O)c3ccccc32)c(OC)c1", "note": "(stereo not drawn)", "survival": "inactive: 90%"}
{"compound": "O=C(Nc1nccs1)c1cccc(C(=O)Nc2nccs2)c1", "survival": "inactive: 123%"}
{"compound": "CCc1ccc(OCC(=O)N(Cc2ccco2)Cc2ccco2)cc1", "survival": "inactive: 63%"}
{"compound": "Cc1cc(C)cc(OCc2cc(=O)n3cc(C)sc3n2)c1", "survival": "inactive: 67%"}
{"compound": "COc1cc(NC(=O)c2ccco2)c(OC)cc1NC(=O)CSc1ncc(-c2ccc(F)cc2)[nH]1", "survival": "inactive: 103%"}
{"compound": "COc1ccccc1NC(=O)CCn1nc(-c2ccccc2)c2ccccc2c1=O", "survival": "active: 4%"}
{"compound": "O=C(C1CCN(c2nc3ccccc3[nH]2)CC1)N1CCN(c2ccccc2)CC1", "survival": "inactive: 85%"}
{"compound": "Cc1cc2c(cc1C)C(C)CC(C)(C)N2", "note": "(stereo not drawn)", "survival": "inactive: 118%"}
{"compound": "CCOC(=O)c1c(C)n(-c2ccccc2)c2ccc(OC(=O)c3ccc(OCC)c(OCC)c3)cc12", "survival": "inactive: 134%"}
{"compound": "Cc1cccc(-c2noc(-c3ccc(NCC4CCCO4)c([N+](=O)[O-])c3)n2)c1", "note": "(stereo not drawn)", "survival": "inactive: 113%"}
{"compound": "Cc1cccc(NCc2nnc3n2CCCCC3)c1C", "survival": "inactive: 70%"}
{"compound": "CCCN1CCN(CCCNC(=O)c2ccc3c(c2)sc2nc(-c4ccc(C)cc4)cn23)CC1", "survival": "inactive: 20%"}
{"compound": "CN(C(=O)c1ccc2c(c1)N(Cc1ccccc1F)C(=O)c1ccccc1S2)C1CCCCC1", "survival": "inactive: 70%"}
{"compound": "COc1ccccc1N1CCN(c2nc3ccc(C)cc3nc2-n2nc(C)cc2C)CC1", "survival": "active: 0%"}
{"compound": "O=C(Nc1c(C(=O)N2CCC(N3CCCCC3)CC2)oc2ccccc12)c1c(F)cccc1F", "survival": "inactive: 73%"}
{"compound": "Cc1ccc(-c2nnc(Nc3ccc(Cl)cc3)c3ccccc23)cc1S(=O)(=O)N1CCOCC1", "survival": "inactive: 85%"}
{"compound": "CN(C)S(=O)(=O)c1ccc2c(c1)N(CC(=O)N1CCCCC1)CCS2", "survival": "inactive: 64%"}
{"compound": "Cn1cc(S(=O)(=O)c2ccccc2)c(=O)c2cc(F)c(N3CCN(c4ccc(F)cc4)CC3)cc21", "survival": "inactive: 119%"}
{"compound": "CC(=O)Nc1ccc(NC(=O)C(Cc2ccccc2)N2Cc3ccccc3C2=O)cc1", "note": "(stereo not drawn)", "survival": "inactive: 72%"}
{"compound": "Cc1cccc(N2CCN(C(=O)c3c(C)oc4nc(C)nc(N5CCCC5)c34)CC2C)c1", "note": "(stereo not drawn)", "survival": "inactive: 69%"}
{"compound": "Cc1ccc(NC(=O)Cn2c(=O)n(CCC(=O)NCCc3ccccc3)c(=O)c3ccccc32)cc1", "survival": "inactive: 69%"}
{"compound": "O=C(Cn1cnc(S(=O)(=O)N2CCCC2)c1)Nc1ccccc1", "survival": "inactive: 126%"}
{"compound": "COc1ccc(CNC(=O)CCc2nc3cccnc3n2Cc2ccccc2)cc1", "survival": "inactive: 119%"}
{"compound": "CCOc1ccc(CCNC(=O)C(C)n2nc(C)n3c(cc4occc43)c2=O)cc1OCC", "note": "(stereo not drawn)", "survival": "inactive: 80%"}
{"compound": "Cc1ccc(Cl)cc1N1CCN(C(=O)c2cn(C)c3ccc(S(=O)(=O)N(C)C4CCCCC4)cc3c2=O)CC1", "survival": "inactive: 129%"}
{"compound": "COc1cccc(-n2c(SCC(=O)N3CCCCC3)nc3c([nH]c4ccccc43)c2=O)c1", "survival": "active: -3%"}
{"compound": "CC1CCC(N2CC(=O)N(C3CCCC3)C(c3ccc(Cl)cc3)C2=O)CC1", "note": "(stereo not drawn)", "survival": "inactive: 71%"}
{"compound": "Cc1ccc(C)c(CN2C(=O)c3ccccc3Sc3ccc(C(=O)NCc4cccs4)cc32)c1", "survival": "inactive: 76%"}
{"compound": "CC(=O)c1cccc(NC(=O)c2noc3c2CSc2ccccc2-3)c1", "survival": "inactive: 88%"}
{"compound": "COc1ccc(NC(=O)c2c(N)c(C(=O)c3ccc(C)cc3)n3ccccc23)cc1OC", "survival": "inactive: 98%"}
{"compound": "Cc1ccc(C)c(NC(=O)C2CCN(c3nn4c(=O)cc(C)nc4s3)CC2)c1", "survival": "inactive: 96%"}
